Our source for the binding signal (log2 normalized intensity) values is publication PMC10726135.

This is one part of the list. At the low end of the ranking the order means little. Measured with an extract: partners may take part in the binding.

The assay concerns the target T1, HNF4alpha8 (COS-7 nuclear extract) (UniProt P41235-5).
T1 sequence: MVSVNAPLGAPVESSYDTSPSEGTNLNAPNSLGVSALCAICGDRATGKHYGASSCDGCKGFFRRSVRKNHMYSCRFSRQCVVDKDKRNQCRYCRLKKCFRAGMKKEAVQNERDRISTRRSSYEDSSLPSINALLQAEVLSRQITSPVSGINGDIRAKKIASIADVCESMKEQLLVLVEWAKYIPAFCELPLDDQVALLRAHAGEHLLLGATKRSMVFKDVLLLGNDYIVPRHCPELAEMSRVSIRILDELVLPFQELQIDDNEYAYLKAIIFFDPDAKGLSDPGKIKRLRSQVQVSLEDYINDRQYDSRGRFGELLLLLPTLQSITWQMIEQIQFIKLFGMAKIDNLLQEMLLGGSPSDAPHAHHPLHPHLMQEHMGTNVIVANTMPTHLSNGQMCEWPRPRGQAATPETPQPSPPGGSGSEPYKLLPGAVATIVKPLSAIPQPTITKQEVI
Put plainly: protein-binding microarray. The note with it: COS-7 nuclear extract on double-stranded Agilent 4x180k PBM; binding buffer, salt, pH and temperature not given; high values mean tight binding; double strand, one strand shown; sequences stand for … in …GCCTAGGGAGATTAGAGTATCGGTCGA
TCTTGCAGTCCACATTTCTGAGCTGTGGAA: the binding signal (log2 normalized intensity) stood at 0.0191.
With AAATCAATCAAACTCTCTGTGGATGTATGT the figure was 1.99; with ACCTATGAGACATTTTGTCTTTTCTCCCCT, 2.59.
Under GAGGGATTTTCAGTATACTGACTTATCAGG stands 1.06; under GTAATGAAAGGAAATCATTCCAGAAAGACA, -1.31; under AAAGCTCAGATTGCCTAAAGGGGATTTTCT, -1.28.
In the case of TTGGAATCAAACAGATGTAGACATTGGAAT, the binding signal (log2 normalized intensity) was 3.47.
For GACCCGCCGCCCGAGGTCACTGTATGCCCG, the binding signal (log2 normalized intensity) is 2.69.
Take GGGAGATTCCTGACATTCAGTCTTTGTCTT: the binding signal (log2 normalized intensity) came out at 1.27.
With GGGAGTCCTGGGCGTTGCTCTCCCACCCCG the figure was 3.3; with GATTCCACACTGGCTAGATAAGGCTGAAAC, -1.25.
In the case of TTGCCAAGTCCTTCCCAAACTATAGATTTG, the binding signal (log2 normalized intensity) is -1.29.
AGGGCCCGCTGATCCCGGGAGGGAGAGAAG: the binding signal (log2 normalized intensity) is -1.38.
With CTGGCCAGAAGGTCAGAGATCAGGTCTCTT the figure was 2.03.
Regarding CTTGGGTGTATGGGTATAGGCGCGCGTGTG, the binding signal (log2 normalized intensity) was determined as 1.37.
Under AGAAACAGCTGGATTGTTACATCATAGTGT stands 1.01; under ATCAGCTTATCTCAAGAATTGTCTAACCGC, -1.27.
With TTTTTTTTCTTTCTTTTCCCAAACCACGTT the figure was 1.23; with TTTTGTATGCATAAGGCCTTGGACCTTCTG, 3.19.
With TTCCCTTTGTATGGCAGGGGTTAACCTCTA the figure was 3.4.
Take GAGCAGGCCTGGGCTTGCAAAGGTCAGGTT: the binding signal (log2 normalized intensity) is 3.71.
Under GTGTCAATTCTCATTCATCCAAGGACTTTG stands 2.49; under TAGGTTAGATAGGAATCTGGATGGCTGAGC, -1.27; under CACACACACACACACACCCCACACACCAAA, 2.82.
With GCACATTCCTTTCCCTTTATTTAGCCTCAC, the binding signal (log2 normalized intensity) amounted to 0.788.
Turning to CGTTAGGCTACAGTGGTAACCACAGTACTG, the binding signal (log2 normalized intensity) was -1.34.
As for GAAAACCTTAGGCGAATGTCAAAGGTCTTT, the binding signal (log2 normalized intensity) stood at 3.64.
Under CGCTCTGAGTGACCTTTCACCCGCGCCCAG stands 6.45.
Turning to GTCAGCCACCCCTCCTCCTGGGGGCTTTTG, the binding signal (log2 normalized intensity) amounted to 1.91.
CATCAATTTAGACCGTGTGGAAACCTAACT: the binding signal (log2 normalized intensity) was -1.14.
Under TATGAGGCTTCCATTCTCAGGCAGATGGGC stands -1.16.
Under GTTTACTCAGTCATACCACATGGATGGATT stands 0.755.
As to AGGTGCTGCACCTTGAAACCCCTCCTTACA, the binding signal (log2 normalized intensity) was determined as 3.44.
AGAGAAGCACATCCAGGCAGCTTCAGAAAC: the binding signal (log2 normalized intensity) is -1.32.
As for AGGGGTGTGTTGACCGATAACCCTCCTGAA, the binding signal (log2 normalized intensity) came to 1.61.
Under GCAGTGACATGATCAAAGTTCATTGTAGCC stands 4.38; under GATGTTTGGTCTTATTATCTTCAATGATAA, 0.873.
As for ATGTCTTCTTTTATCACTTTGTAATGTCCC, the binding signal (log2 normalized intensity) was found to be 2.36.
Consider CCTTAGATCCACGGAGAATGTAGACCTTTA, for which the binding signal (log2 normalized intensity) worked out at 2.68.
Under GGCTCCAGAGTTTAATACCTCTGATCACTA stands -1.24.
As for CCCACTTCAGGCAGGAATGCTGAACAATTG, the binding signal (log2 normalized intensity) is -0.848.
TCTAAGAAATAGGTTAAAGAGTGGTCTTGG: the binding signal (log2 normalized intensity) worked out at 0.813.
Regarding GTGATTCAACTCTGACCCATAATAACGTCT, the binding signal (log2 normalized intensity) was 1.61.
On to AGTTCTGAATGAGCAGACTGAGTTGCAGGA, for which the binding signal (log2 normalized intensity) is -1.05.
With CAACATACAGAGGCTCTGAGAGTCTCAGTG the figure was -1.33; with TAAAGTGGATTGCTGGCCTTTTATCTTTTA, 1.36; with CTGTTTGTATAACCCTGGCTGGAGTTGCTG, -1.23.
With TGGAACACAGAGGGAAATGCAAACATTTCT the figure was -1.24; with GGGTATGAATTTAACCTTTGCTCTCTGAAA, 6.63.
Under AGGTACTAAGAGATTTGAATATGTACATGG stands 0.942; under CTGCAGTGTGACCTTTGCCTTCTTGACATC, 6.8; under GATTGTTGTGTGCCCACCTGGGCAACAGGG, 1.1.
On to GACGCGCTTGGGCGACGGACGCGCCGCGCC, for which the binding signal (log2 normalized intensity) was -1.32.
For the sequence TCTGGGATCTCAGGGTGGACTTTAAACATT, the binding signal (log2 normalized intensity) came out at 6.85.
With GATAAGGCTAATCCTTACACAGCAGCTTTA the figure was -1.25.
As for AGCCCAGGTAACATACCAAAAAGCATAACT, the binding signal (log2 normalized intensity) was -1.17.
With CTCACCTTCAGATGCCATGTCTAAAGGCTG the figure was -1.23; with TAAGAAATCAGGAGCAAAGGTTGGGGGTGG, 1.51.
With GCCACATCCTGTCTCCTTTAACCTTCATTC the figure was 1.97; with CCACAAAGGCCAGAGAAAGAGAGAGTTAGT, -1.29.
With CAGTCCACATGGTGTCTTTTGTTGTTGTTA the figure was 2.16; with ACCCAGTTCGTGCTTCTTGGCCTCTTTGTT, 1.85.
For the sequence GGCCAGCGACTTTAGGGGCCAAGGGAAAAC, the binding signal (log2 normalized intensity) is -1.29.
With CCTTGCTCAACTCCCTCTGAAGGGAGGGCC the figure was -1.36; with GATGTGTGTATCAATGGCCCCAGTGCACGT, 2.42; with GTGGTTGCTCGGAACACGAGGTGAGAGGCG, -1.26.
As for ACGAGCAAGTTTATTCCAAGACTCGCGATA, the binding signal (log2 normalized intensity) is -1.13.
With ACAGAGGTCAAAGAGCAATCATCAAGGTGG the figure was 3.85.
In the case of TTTCCTGTGACTTTTGGCCAGAGTAAGGCG, the binding signal (log2 normalized intensity) was 2.02.
Take CAAAAGTTCAAAGATATGATGGCCAGTTCA: the binding signal (log2 normalized intensity) was found to be 1.23.
For GGCAGGGAAAGGGGGTTTGCAACCTTTGAT, the binding signal (log2 normalized intensity) turned out to be 3.52.
Take TTTTTCCTGGATGCCAGGCAAGAGCTCAGA: the binding signal (log2 normalized intensity) is -1.26.
CATCCTGGCGACAGCAACTAGCAACTTGGA: the binding signal (log2 normalized intensity) is -0.937.
